# Article PMC4336329 (PLoS ONE, 2015)
# Hit rate of the full screen: of about 310,000 compounds, about 2,200 (0.71%) showed an effect of 50% or more. The effect is printed as a negative number. The list shows a part of the results.
# Molecular target: human ether-à-go-go-related gene (hERG) potassium channel (human, UniProt Q12809)
# Assay: primary screen, population patch clamp on CHO cells stably expressing hERG
# Sequence of human ether-à-go-go-related gene (hERG) potassium channel (Q12809 whole entry, looked up): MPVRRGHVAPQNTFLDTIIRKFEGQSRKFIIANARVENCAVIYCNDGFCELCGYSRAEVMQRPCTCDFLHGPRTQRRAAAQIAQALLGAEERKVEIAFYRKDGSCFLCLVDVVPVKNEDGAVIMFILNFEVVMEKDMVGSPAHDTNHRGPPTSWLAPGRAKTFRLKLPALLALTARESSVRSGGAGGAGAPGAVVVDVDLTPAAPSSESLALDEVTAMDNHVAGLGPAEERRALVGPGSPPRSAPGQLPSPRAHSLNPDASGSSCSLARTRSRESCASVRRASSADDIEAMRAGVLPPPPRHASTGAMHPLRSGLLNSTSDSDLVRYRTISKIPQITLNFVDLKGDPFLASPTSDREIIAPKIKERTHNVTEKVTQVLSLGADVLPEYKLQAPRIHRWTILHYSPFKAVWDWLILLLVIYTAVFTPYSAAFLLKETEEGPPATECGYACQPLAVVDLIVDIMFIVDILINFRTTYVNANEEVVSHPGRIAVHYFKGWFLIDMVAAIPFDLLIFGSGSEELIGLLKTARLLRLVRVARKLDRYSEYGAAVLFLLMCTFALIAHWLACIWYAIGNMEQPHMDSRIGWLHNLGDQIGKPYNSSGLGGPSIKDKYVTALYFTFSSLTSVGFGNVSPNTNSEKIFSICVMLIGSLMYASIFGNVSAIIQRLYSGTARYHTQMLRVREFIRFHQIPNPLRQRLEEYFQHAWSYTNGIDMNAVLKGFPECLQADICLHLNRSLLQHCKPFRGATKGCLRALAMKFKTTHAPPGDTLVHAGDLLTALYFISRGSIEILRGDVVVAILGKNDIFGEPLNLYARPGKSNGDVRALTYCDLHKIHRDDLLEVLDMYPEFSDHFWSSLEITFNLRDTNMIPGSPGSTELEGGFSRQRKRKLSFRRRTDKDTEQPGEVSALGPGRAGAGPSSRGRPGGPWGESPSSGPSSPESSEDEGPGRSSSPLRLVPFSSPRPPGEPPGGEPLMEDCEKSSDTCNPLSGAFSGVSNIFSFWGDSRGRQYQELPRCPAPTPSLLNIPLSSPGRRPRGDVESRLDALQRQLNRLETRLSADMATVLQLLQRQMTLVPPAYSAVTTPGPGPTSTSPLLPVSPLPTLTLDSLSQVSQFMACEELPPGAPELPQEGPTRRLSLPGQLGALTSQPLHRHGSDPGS
row,Structure (SMILES),"hERG current change (%, negative = inhibition) at 1uM [%]"
1,O=C(O)/C=C/C(=O)NNC(=O)c1ccc(Cl)cc1Cl,14.1
2,COc1cccc(CN2CC(C(=O)N(C)C3CCOCC3)CCC2=O)c1 (centres unmarked),15.7
3,C#Cc1ccc([C@@H]2C=C(C(=O)NCc3ccccc3)O[C@H](OCC)[C@H]2CCCO)cc1,6.52
4,Cc1ccc(CC(=O)NCC(O)c2ccccc2)cc1 (centres unmarked),11
5,Cc1nnc(NC(=O)c2ccccc2C(=O)O)s1,11.5
6,Cc1cc(Br)ccc1NC(=O)CCS(=O)(=O)c1cccc2nonc12,17.7
7,O=C(N/N=C/c1ccc([N+](=O)[O-])o1)c1sc2ccccc2c1Cl,-1.26
8,Cc1nnc(SCC(=O)Nc2ccc3c(c2)OCO3)[nH]c1=O,17.4
9,O=C1CCCC(c2ccccc2)N1 (centres unmarked),-3.28
10,Cc1c(C(=O)N2CCOCC2)cc(C(C)(C)C)n1-c1ccccc1,6.84
11,CC(=O)Nc1ccc(/C=C(\C#N)C(=O)NCc2ccccc2)cc1,14.3
12,CN(C)CC(CCCCC(CN(C)C)C(=O)c1ccccc1)C(=O)c1ccccc1 (centres unmarked),14.5
13,CCc1ccccc1NC(=O)Cn1nnc(-c2cccs2)n1,5.81
14,O=C(O)C1CSC(c2ccccc2)N1C(=O)c1ccco1 (centres unmarked),10
15,Cc1ccc(CN2CCN(/N=C/c3ccc(C(=O)O)cc3)CC2)cc1,19.3
16,CCCc1cc(=O)n2nc(N3CCC(C(=O)N4CCN(c5ccc(OC)cc5)CC4)CC3)sc2n1,1.95
17,C/C(CC(=O)NCc1ccco1)=N\NC(=O)CC#N,7.18
18,CS(=O)(=O)N(CC(=O)NCCSc1ccccn1)c1ccc(F)cc1,23.1
19,Cc1ccc(S(=O)(=O)NC(C)(C)C)cc1C(=O)OC(C)C(=O)NC1CC1 (centres unmarked),4.93
20,O=C(NCc1ccccc1)c1ccc(CS(=O)(=O)c2ccc(Br)cc2)o1,15
21,O=S(=O)(NCc1cn2ccccc2n1)c1ccccc1F,4.36
22,O=C(CCc1ccc(S(=O)(=O)NC2CCCCC2)cc1)NCc1cccnc1,13.9
23,O=C(O)CCCNC(=O)/C(=C\C=C\c1ccccc1)NC(=O)c1ccccc1Cl,-2.33

row,Structure (SMILES),"hERG current change (%, negative = inhibition) at 1uM [%]"
1,COC(=O)N(NC(=O)C(O)(c1ccccc1)c1ccccc1)c1ccccc1,15.5
2,CN(C)C(=O)CSc1nnc(-c2ccc(F)cc2)c2ccccc12,9.69
3,COc1ccc(OCCn2cc(C=O)c3ccccc32)cc1,10.9
4,COc1ccc(NC(=O)c2cc(C3CC3)on2)c(OC)c1,-6.04
5,CCNS(=O)(=O)c1cc(-c2nnc(OC)c3ccccc23)ccc1C,11.1
6,Cn1c(CN2CCOCC2)nnc1SCC(=O)NCCc1ccccc1,6.24
7,CCn1c(-c2cc(-c3ccc(C)c(C)c3)nc3ccccc23)n[nH]c1=S,16.2
8,CCCc1cc(C(=O)NCc2cccnc2)no1,13.6
9,O=C(COC(=O)Cc1cccc(C(F)(F)F)c1)Nc1cccc2ccccc12,11.6
10,CC1CC(C)CN(C(=O)CCc2nnc3ccc(N4CCCCC4)nn23)C1 (centres unmarked),4.1
11,CCOc1ccc(NC(=S)c2ccc3ccccc3n2)cc1,5.21
12,CC(C)c1onc(C(=O)N2CCN(c3ccccc3)CC2)c1[N+](=O)[O-],12.9
13,CC(=O)C1=C(C)NC(SCSc2ccccc2)=C(C#N)C1c1cccnc1 (centres unmarked),5.28
14,CCC/C(O)=C1\C(=O)CC(C)(C)CC1=Nc1ccccc1O,4.5
15,O=C(CCC1CCCCC1)NCCN1C2=NC[C@H](Cc3ccccc3)N2C[C@H]1Cc1ccc(O)cc1,11.4
16,CCCC1CCc2[nH]nc(C(=O)NN)c2C1 (centres unmarked),13.6
17,Cc1nc(-c2ccc(Cl)cc2)sc1C(=O)O,13
18,COc1ccc2c(c1)[nH]c1c(C)nccc12.Cl,-0.728
19,CCOc1ccc(CN2CCN(Cc3nc(C(C)C)cs3)CC2CCO)cc1 (centres unmarked),-85.5
20,Cn1cc(CNC(=O)c2ccc(OC3CCN(Cc4ccccn4)CC3)cc2)cn1,12.3
21,COc1ccc(S(=O)(=O)N2CCNC(=O)CC2)cc1,11.2
22,CC(=O)c1ccc(NC(=S)NCCc2cccc(Cl)c2)cc1,-5.56
23,Cc1n[nH]c(=S)n1-c1cccc(Cl)c1,13.9

row,Structure (SMILES),"hERG current change (%, negative = inhibition) at 1uM [%]"
1,O=C(C[N+]12CCC(CC1)C(C(O)(c1ccccc1)c1ccccc1)C2)c1ccc(Br)cc1.[Br-] (centres unmarked),5.51
2,CCCCN(C(=O)CCC(=O)Nc1cc(C)on1)C(C(=O)NC1CCCC1)c1cccc(OC)c1 (centres unmarked),13.7
3,Cc1csc2ncc(C(=O)Nc3cccc(C(F)(F)F)c3)c(=O)n12,3.37
4,O=C(Cn1cc(C(F)(F)F)ccc1=O)N/N=C/c1ccc(F)cc1,8.87
5,Cc1ccc(NC(=S)NCCc2cnc[nH]2)cc1C,9.41
6,CC(=O)O[C@H]1CC[C@@]2(C)[C@@H](CC[C@@H]3[C@@H]2CC[C@]2(C)[C@@H](C(C)(C)O)C[C@@H]32)C1,8.13
7,Cc1ccc(S(=O)(=O)NNC(=O)c2snnc2C)cc1,5.74
8,CSc1nc([O-])cc(=O)n1-c1ccc(F)cc1.[K+],7.49
9,CCCNc1c(NS(=O)(=O)c2ccc(C)c(C)c2)c(=O)oc2ccccc12,-6.38
10,CC(C)CCN1CCN(C/C=C/c2ccco2)CC1CCO (centres unmarked),-10.5
11,CCOC(=O)C1=C(C)N(Cc2ccccc2)C(=O)NC1c1ccccc1OS(=O)(=O)c1ccccc1[N+](=O)[O-] (centres unmarked),7.99
12,COC(=O)c1c(NC(NC(=O)CC(C)C)C(Cl)(Cl)Cl)sc2c1CCC2 (centres unmarked),2.49
13,CC(C)Nc1ncnc2c1cnn2Cc1ccccc1Cl,17.2
14,CCOC(=O)c1sc2c(c1C)c(=O)n(CCO)c(=O)n2Cc1ccccc1,5.75
15,CC1(C)Cc2c(sc3c2c(=N)n(Cc2ccco2)c(=O)n3Cc2ccc(Cl)cc2)CO1,3.85
16,COc1ccc(NC(=S)NC(=O)/C=C/c2ccco2)c(OC)c1,4.88
17,COc1ccc(CNC(=O)COC(=O)CNC(=O)c2sc3ccccc3c2Cl)cc1OC,14.7
18,CN(C(=O)CSc1n[nH]c(-c2cccs2)n1)C1CCS(=O)(=O)C1 (centres unmarked),11.6
19,Cc1cc2c(=O)oc(-c3ccc(Br)cc3)nc2s1,12.8
20,O=C(CSc1nnc(SCc2ccc(Cl)cc2)s1)N/N=C/c1ccc(Cl)cc1Cl,9.38
21,O=C(/C=C/c1ccco1)Nc1ccccc1C(=O)Nc1cccc(C(=O)O)c1,15.9
22,CC(=O)C(C)Oc1ccc2c3c(c(=O)oc2c1)CCCCC3 (centres unmarked),5.08
23,O=C(NC1CCCC1)C1(c2ccccc2)CCN(S(=O)(=O)c2ccccc2)CC1,1.27

row,Structure (SMILES),"hERG current change (%, negative = inhibition) at 1uM [%]"
1,COc1ccc(-n2nnnc2SCC(=O)N2CCCC2=O)cc1,6.98
2,COc1cccc(OCC(O)CN2C(C)CCCC2C)c1.Cl (centres unmarked),7.18
3,CCC(C)[C@H](NC(=O)N1CC(=O)Nc2ccccc21)C(=O)N1CCC[C@H]1C(=O)O (some centres unmarked),3.03
4,O=c1[nH]c2cc3c(cc2cc1CN(Cc1ccco1)C(=S)NCC1CCCO1)OCCO3 (centres unmarked),15.1
5,COc1ccc(Cn2nc(C)n(N(C)c3ncc(C(F)(F)F)cc3Cl)c2=O)cc1,10
6,O=C(Nc1ccccn1)c1cccc(S(=O)(=O)N2CCOCC2)c1,5.85
7,COC(=O)C(NC(=O)c1ccccc1)=C1C=C(C)OC(C)=C1,17.4
8,COc1ccc(C(=O)NC2CCSc3ccccc32)cc1 (centres unmarked),11.2
9,O=C(NC(=S)Nc1ccc(S(=O)(=O)N2CCCC2)cc1)c1cccs1,-9.08
10,CCN(CC)C(=S)SCC(=O)Nc1ncc2c(n1)CC(C)(C)CC2=O,8.32
11,Cc1ccc(-n2nc3c(c2NC(=O)c2ccco2)CS(=O)(=O)C3)cc1,-0.668
12,COc1ccc(N=Cc2cccc(C)c2O)cc1Cl,10.4
13,Cc1cc(/C=C2\C(=N)N3N=C(C(C)C)SC3=NC2=O)c(C)n1-c1ccccc1,23.1
14,CCC(C)n1c(SCC(=O)NC(=O)Nc2ccc3c(c2)OCCO3)nc2ccccc2c1=O (centres unmarked),13
15,CCCCc1ccc(S(=O)(=O)NCCCN2CCCC2=O)cc1,12
16,Cc1ccc2c(c1)N(C(=O)CCC(=O)NCCCN1CCOCC1)CC(C)O2 (centres unmarked),-1.87
17,COc1cc(S(=O)(=O)NCc2ccc3c(c2)OCO3)ccc1Cl,5.03
18,Cc1sc2ncnc(N3CCN(S(=O)(=O)c4ccccc4)CC3)c2c1C,-3.29
19,CCC(=O)n1nc(-c2ccc(OC)cc2)nc1SC,19.7
20,Cc1c(C(=O)N2CCN(c3ccccn3)CC2)sc2ncnc(N3CCOCC3)c12,-24.2
